Data as given in PMC12136788.
Some of the results follow.

B1: 153934122_153934242_4685_ncRNA_ENSMUSG00000028360_ENSMUST00000144677|mouse|control|control (ssRNA)
RNA: GGGAGUUCUACAGUCCGACGAUCUCUAUUGGCACAAUAAAAAACUGACAGGUAAACAGGUUGUUUCGUAUAAAAGUUAGUGGAACUGACAAUCCAUAACAGGAUAGAAGAGCCACAGGUAAUGGGGCUUUCCAGCCCAGCACACAACAGAGGAUUGAGCAUCA
B2: chrX:98862621:98862622:+_ENSMUSG00000034160_ENSMUST00000044475|mus_hu|mus_mus_mus_hu_False|58_88 (ssRNA)
RNA: GGGAGUUCUACAGUCCGACGAUCCUGCAUCUCCUUUAGAGUGUUUCCCAUAUUGGAGUAGGCAUCAGCAAAGGUAGGACUAAUUCGAAUAGCCUCCUUAUAAUGCAUCAGAGCUUCCUGCAGUUUUCCCUGCUGCUGCAGUACCAACAGAGGAUUGAGCAUCA
B3: chr4:117558906:117558907:-_ENSMUSG00000033379_ENSMUST00000036380|mus_mus|motif|central (ssRNA)
RNA: GGGAGUUCUACAGUCCGACGAUCGGAUGAGCCGGUUAUAUAGAUUCCCCAGGCUGCUCCAACCACAGACAGAGAAAUUGCGGGGCCAAUGCCCAGAUUCGACCACAUGAAGGGGGAAGUUUCCGUCAGGAACCAUGCCACAUCCAACAGAGGAUUGAGCAUCA
B4: 98667876_98670545_2651_CDS_ENSMUSG00000028556_ENSMUST00000030286|mouse|control|control (ssRNA)
RNA: GGGAGUUCUACAGUCCGACGAUCUCCCAAACCCCCGGGACCUGGUGACGGUGAAUUAGGGUAAGUAUUUGGCAGGCGGAACACAUAAUAGAUAUACGAUGCGAGAAGGUUGUUUCUGCCAUGCUGGUCAUGAUUUCCUUCUAACAACAGAGGAUUGAGCAUCA
B5: 111933410_111933530_464_3pUTR_ENSMUSG00000021270_ENSMUST00000094361|mouse|control|control (ssRNA)
RNA: GGGAGUUCUACAGUCCGACGAUCUCUGCACCAGCCUGCAAAGCCUCCAUGAAGGCUUUGGUGCCCGACUUGGCAAUGGUGCCAAGGUUAUUGAUCAAGUCGGCCUUGGUCAUUCCAAUCCCGGUAUCCACAAUGGUCAGGGUUCAACAGAGGAUUGAGCAUCA
B6: 33914443_33925304_586_3pUTR_ENSG00000006125_ENST00000262325|human|control|control (ssRNA)
RNA: GGGAGUUCUACAGUCCGACGAUCCUUUCUCUUUUCUUUCUUUUCAUUGUUGAGUUCAGCUUUUAGUUCAAAUAUUUCUCCUUUUUUAUUGGUUGUGAAAUACUUGGAGUCAGUCAUGACUUUGGAUCUUUAAUGUGCACCGGACAACAGAGGAUUGAGCAUCA
B7: chr6:143133109:143133110:+_ENSMUSG00000030275_ENSMUST00000032413|mus_mus|motif|central (ssRNA)
RNA: GGGAGUUCUACAGUCCGACGAUCUUUGGGGAUCCAGCCAUUGUGCGCAUGAAUAGCAUGGAUUUUAGCAAGCUGACGAGCGGUUAGCCUGAAAAUGGCUGGGUUGCAGACAUGCUGCGGGUCCAAAGCUUCGCCCUGGAUAAACAACAGAGGAUUGAGCAUCA
B8: chr6:40197388:40197389:+_ENSMUSG00000057716_ENSMUST00000061740|mus_mus|mus_mus_mus_hu_False|88_88 (ssRNA)
RNA: GGGAGUUCUACAGUCCGACGAUCGAGACACUGGGGUGGAUUUAUUCUCAGUUUGGGUGGGUGCUAGCCACUAAGACUGUUAUUUUGGGAUUCAUGGCCUUGAAUAUCAAGAGGGAAAGGAAGAGGAUGGAAAGAGUCAAGAGUCAACAGAGGAUUGAGCAUCA
B9: 113187099_113187219_1241_3pUTR_ENSG00000163611_ENST00000295872|human|control|control (ssRNA)
RNA: GGGAGUUCUACAGUCCGACGAUCUUCUUCCAUUUCAUGUUCCACUUCAUGUAUCAUGUGUUUGAGGACAUCCAGGUUGGAAUUAGUCCUAUUUGGUAAGUCUGCAGAGGUUGUGCUACCUGAUGAUAUGUUUUUCUUCGGCUUCAACAGAGGAUUGAGCAUCA
B10: chr11:30747457:30747458:+_ENSMUSG00000040850_ENSMUST00000041231|mus_mus|FALSE|FALSE (ssRNA)
RNA: GGGAGUUCUACAGUCCGACGAUCACCCUUAAAGAGGCAGAAACGCCGGGGACUAAACUUAUCUCUUCCUUUUCUGUCUUCUAAAGAUAGAAAUGUGAUUAACUGCUCAACAAACUUAGGAUCAGAAAAACGAUCAUAUAUAAUCAACAGAGGAUUGAGCAUCA
B11: chr2:9570881:9570882:+_ENSG00000119203_ENST00000238112|hu_mus|hu_hu_hu_mus_False|18_108 (ssRNA)
RNA: GGGAGUUCUACAGUCCGACGAUCACUUGUCUUCUGUAGGAACCAGGGCAGGGCUCCACAGUGAUCCAAAUGGAAAUGACUGAUCAACAGAAGGUCGAUCUCAGCUGGGUCGAUAAGAUCAAUAUAAGGAAGGGCAUCCAUUCCCAACAGAGGAUUGAGCAUCA
B12: chr1:58468927:58468928:-_ENSMUSG00000026034_ENSMUST00000148330|mus_mus|mus_mus_mus_hu_False|1_18 (ssRNA)
RNA: GGGAGUUCUACAGUCCGACGAUCAAUUACUGAAAAAGAUGUUCAUUACCUUAGCUAUGUACUUAAUGAACCAAAUUACCCAAACAAAAUAAACAUGGCAAUAUAAAAAUGUUAAGAAAAUAACUUACUGUACAAAAAGACUGACAACAGAGGAUUGAGCAUCA
B13: chr1:115282363:115282364:-_ENSG00000009307_ENST00000339438|perfect_dup|motif|central (ssRNA)
RNA: GGGAGUUCUACAGUCCGACGAUCAUCAUCUCCUACUUUUAAGUCUUGGAGGUUGCCAUUAUAUUGUGAACAGUGGAAGAAAAGUCGGGCUUGCCGUUCUGAACACUGAAUGAAUCCGUAAGAGGUCAAGAGUUUUUCAAUAACCAACAGAGGAUUGAGCAUCA
B14: chr21:40768814:40768815:+_ENSG00000182093_ENST00000333781|hu_mus|FALSE|FALSE (ssRNA)
RNA: GGGAGUUCUACAGUCCGACGAUCCUGGCCUUCCCCUCAGCUGAAAGGGUGGAGAACGAUAGCCACAACUUUGUUACAGACUAAAAUCCAACAGGUGAUUCCAAUUCCACCUGCUACUCGAGUAGGAAAGGCUACCAGGCGGUCCAACAGAGGAUUGAGCAUCA

Target: T1, UNK ZnF1-3 (human, UniProt Q9C0B0 31-174)
T1 sequence: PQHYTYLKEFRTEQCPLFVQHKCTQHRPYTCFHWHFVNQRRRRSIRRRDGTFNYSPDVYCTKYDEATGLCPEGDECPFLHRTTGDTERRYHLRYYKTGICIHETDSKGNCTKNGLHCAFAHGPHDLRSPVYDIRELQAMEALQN
Assay: nsRBNS (natural sequence RNA bind-n-seq); RBNS binding buffer (assumed for nsRBNS): 25 mM Tris pH 7.5, 150 mM KCl, 3 mM MgCl2, 0.01% Triton X-100, 500 ug/ml BSA, 20 U/ml SUPERase-In, 4 C; UNK is unkempt and MSI1 is Musashi-1; names of the RNAs are library labels; protein concentration not given here; high values mean tight binding

**Q.** B1 was tested. Which binding signal did it give?
**A.** 0.952 enrichment R

**Q.** Which binding signal does the source give for B2 here?
**A.** 0.89 enrichment R

**Q.** Which binding signal does the source give for B3 here?
**A.** 2.32 enrichment R

**Q.** How did the binding signal turn out when B4 was run?
**A.** 1.19 enrichment R

**Q.** B5 was tested. Which binding signal did it give?
**A.** 0.634 enrichment R

**Q.** For B6, which binding signal is on record?
**A.** 0.321 enrichment R

**Q.** How did the binding signal turn out when B7 was run?
**A.** 0.834 enrichment R

**Q.** Which binding signal does the source give for B8 here?
**A.** 1.51 enrichment R

**Q.** With B9 as the binder, how does the binding signal read?
**A.** 0.422 enrichment R

**Q.** With B10 as the binder, how does the binding signal read?
**A.** 0.442 enrichment R

**Q.** For B11, which binding signal is on record?
**A.** 1.07 enrichment R

**Q.** Which binding signal does the source give for B12 here?
**A.** 1.72 enrichment R

**Q.** B13 was tested. Which binding signal did it give?
**A.** 1.55 enrichment R

**Q.** With B14 as the binder, how does the binding signal read?
**A.** 1.05 enrichment R
